Structures are written as SMILES. Out of some 310,000 compounds screened, about 2,200 (0.71%) showed an effect of 50% or more. Effects have a minus sign here. Some of the results follow.

Sequence of human ether-à-go-go-related gene (hERG) potassium channel (Q12809 whole entry, looked up): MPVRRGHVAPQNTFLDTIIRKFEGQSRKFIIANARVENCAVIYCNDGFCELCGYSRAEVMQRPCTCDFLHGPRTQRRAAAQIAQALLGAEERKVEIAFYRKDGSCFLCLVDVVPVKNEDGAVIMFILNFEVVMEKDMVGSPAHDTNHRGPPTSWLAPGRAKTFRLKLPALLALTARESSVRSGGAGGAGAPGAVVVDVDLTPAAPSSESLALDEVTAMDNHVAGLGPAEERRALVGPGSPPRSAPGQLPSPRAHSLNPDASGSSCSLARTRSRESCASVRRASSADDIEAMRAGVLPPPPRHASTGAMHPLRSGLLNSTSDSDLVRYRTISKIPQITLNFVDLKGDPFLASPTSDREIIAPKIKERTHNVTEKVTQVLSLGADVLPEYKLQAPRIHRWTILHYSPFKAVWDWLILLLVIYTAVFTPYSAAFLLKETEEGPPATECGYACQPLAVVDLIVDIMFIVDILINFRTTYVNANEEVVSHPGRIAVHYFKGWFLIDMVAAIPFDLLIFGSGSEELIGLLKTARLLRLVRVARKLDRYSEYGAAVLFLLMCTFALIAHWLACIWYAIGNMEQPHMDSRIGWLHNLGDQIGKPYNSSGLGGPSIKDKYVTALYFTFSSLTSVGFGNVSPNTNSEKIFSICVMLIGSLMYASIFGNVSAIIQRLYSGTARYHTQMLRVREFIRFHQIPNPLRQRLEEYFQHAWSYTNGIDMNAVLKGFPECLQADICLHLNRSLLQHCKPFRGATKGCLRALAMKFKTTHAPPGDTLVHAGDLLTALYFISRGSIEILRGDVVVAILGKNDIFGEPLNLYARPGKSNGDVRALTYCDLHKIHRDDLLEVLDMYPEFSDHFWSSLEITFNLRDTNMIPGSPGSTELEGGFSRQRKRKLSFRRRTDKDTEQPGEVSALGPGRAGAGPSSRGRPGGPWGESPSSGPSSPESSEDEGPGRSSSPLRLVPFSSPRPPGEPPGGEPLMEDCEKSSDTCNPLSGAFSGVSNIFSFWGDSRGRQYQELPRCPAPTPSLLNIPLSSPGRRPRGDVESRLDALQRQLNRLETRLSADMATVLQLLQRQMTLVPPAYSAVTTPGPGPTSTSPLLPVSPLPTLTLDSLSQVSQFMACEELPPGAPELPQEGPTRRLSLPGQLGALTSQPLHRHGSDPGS

The assay addresses human ether-à-go-go-related gene (hERG) potassium channel (human, UniProt Q12809). Put plainly: primary screen, population patch clamp on CHO cells stably expressing hERG.
On to `O=S(=O)(c1ccccc1F)N1CCC(Oc2ccc(-n3cnnn3)cc2)CC1`, for which the “hERG current change (%, negative = inhibition) at 1uM” value is -23.4%.

`O=C(Oc1ccc(-c2ccccc2)cc1)N1CCOCC1`: the “hERG current change (%, negative = inhibition) at 1uM” value is given as 12%.

With `COc1ccc(OC)c(CCNC(=O)CS(=O)(=O)Cc2nc(-c3ccccc3C)oc2C)c1`, the “hERG current change (%, negative = inhibition) at 1uM” value is listed as 3.09%. For `O=C(CC1C(=O)NCCN1Cc1ccc(-c2ccccc2)cc1)NCCOc1cccnc1` (stereo not shown) the value was 9.6%.

Consider `CN1CCN(C(=S)Nc2cccc(S(=O)(=O)N(C)C)c2)CC1`, for which the “hERG current change (%, negative = inhibition) at 1uM” value stood at 17.8%. In the case of `CN(C)C(=O)N1CCC(C(=O)NCc2ccccc2)CC1`, the “hERG current change (%, negative = inhibition) at 1uM” value came out at 13.5%. For `COc1ccc(-n2ccnc(SCC(=O)NC3CCCC3)c2=O)cc1OC`, the “hERG current change (%, negative = inhibition) at 1uM” value worked out at 13.6%. In the case of `Cc1ccccc1C(=O)NC(=S)Nc1ccccc1N1CCCC1`, the “hERG current change (%, negative = inhibition) at 1uM” value is recorded as 10.6%. `Cc1occc1-c1nnc(SCC(=O)Nc2nc3ccccc3s2)o1`: the “hERG current change (%, negative = inhibition) at 1uM” value stood at 9.64%.

With `CCn1cnc2c(NCCc3cccnc3)nc(C#N)nc21`, the “hERG current change (%, negative = inhibition) at 1uM” value stood at 26.8%. The result for `COC(C(=O)Nc1ccnn1C1CCN(Cc2cccc(C)n2)CC1)c1ccccc1` (stereo not shown) reads 16.4%; that for `O=C(CSc1nccn1-c1ccccc1)N1CCc2ccccc21`, -4.29%; that for `COc1ccc(-c2cc(=O)oc3cc(OC(C)C(=O)NC(Cc4c[nH]c5ccc(O)cc45)C(=O)O)ccc23)cc1` (stereo not shown), -0.486%. As to `O=C(NCCCN1CCCC1=O)C1CCN(S(=O)(=O)c2ccc(Cl)cc2)CC1`, the “hERG current change (%, negative = inhibition) at 1uM” value amounted to 11.5%. For `Cc1ccc(NC(=O)C(=O)NCCN2CCN(S(C)(=O)=O)CC2)cc1C` the value was 11.5%. The result for `O=C(Nc1ccc(CN2CCCCC2)cc1)c1cccc(F)c1` reads -6.1%; that for `CCc1ccc[n+](-c2nc3ccccc3nc2C(=C=[N-])C#N)c1`, 10.3%. For the compound `O=C(NCCNc1ccnc2cc(Cl)ccc12)c1ccccc1F`, the “hERG current change (%, negative = inhibition) at 1uM” value is -33.5%.

As for `CC(=O)c1ccc(NC(=O)CSc2ccc(-c3ccco3)nn2)cc1`, the “hERG current change (%, negative = inhibition) at 1uM” value is recorded as 6.41%. The result for `COc1ccc(C2CC(=O)C(C=NCCO)=C(O)C2)cc1` (stereo not shown) reads 8.34%; that for `O=C(O)CCNC1CCCCC1`, 14.2%. Take `CCn1c(=S)[nH]c2cc(Cl)ccc21`: the “hERG current change (%, negative = inhibition) at 1uM” value is on record as 13.9%. As to `O=C(O)CC(Cc1ccc(Cl)cc1)C(=O)Nc1ccc([N+](=O)[O-])cc1` (stereo not shown), the “hERG current change (%, negative = inhibition) at 1uM” value was 11.6%. `Cc1ccccc1C(=O)N1CCN(c2ccc(NC(=O)c3cccs3)cc2)CC1`: the “hERG current change (%, negative = inhibition) at 1uM” value was found to be 9.09%.

As to `Cc1cc(N2CCN(c3ccccc3)CC2)nc(N2CCOCC2)n1`, the “hERG current change (%, negative = inhibition) at 1uM” value is recorded as -16.6%. For the compound `Cc1ccc(-c2cc(-c3ccc(F)cc3)nc(N)c2C#N)o1`, the “hERG current change (%, negative = inhibition) at 1uM” value was determined as 7.43%. Regarding `CCc1ccc(CN/C=C/C(=O)c2ccc(Br)cc2)cc1`, the “hERG current change (%, negative = inhibition) at 1uM” value amounted to 6.84%. In the case of `CCCNc1c(NS(=O)(=O)c2ccc(C(C)(C)C)cc2)c(=O)oc2ccccc12`, the “hERG current change (%, negative = inhibition) at 1uM” value stood at 9.75%. `Cc1cccc(OCC2CCCN(Cc3nc(C4CC4)no3)C2)c1` (stereo not shown): the “hERG current change (%, negative = inhibition) at 1uM” value amounted to 7.74%. `OC(CNCCc1ccc(Cl)cc1)COCc1ccco1` (stereo not shown): the “hERG current change (%, negative = inhibition) at 1uM” value is on record as -6.41%. For `COc1ccc(C(=O)OCC(=O)N2CCCC2=O)c(OC)c1` the value was 13%; for `COC(=O)c1cc(S(=O)(=O)N2CCCC(C)C2)c[nH]1` (stereo not shown), 14.1%. On to `CS(=O)(=O)N(CC(=O)Nc1ccc(Cl)c(Cl)c1)C1CCCCC1`, for which the “hERG current change (%, negative = inhibition) at 1uM” value is -13.8%. `COc1ccc(CCNC(=O)CSc2nnc(-c3cccc(F)c3)o2)cc1OC`: the “hERG current change (%, negative = inhibition) at 1uM” value worked out at 23.2%. Consider `CCOC(=O)c1cnc(SCC(=O)N2CCC(C(N)=O)CC2)nc1N`, for which the “hERG current change (%, negative = inhibition) at 1uM” value is given as 13.7%. The result for `Cc1ccnc(NS(=O)(=O)c2cnc(Cl)c(Br)c2)c1` reads 12%; that for `O=C(CSc1ncn[nH]1)NC1CCCc2ccccc21` (stereo not shown), 5.87%. As for `O=C(Nc1cccnc1)c1ccc(COc2cc(Cl)ccc2Cl)o1`, the “hERG current change (%, negative = inhibition) at 1uM” value was found to be 13.7%.

As for `Cc1ccc(N2CC(C(=O)N3CCC(c4nc5ccccc5[nH]4)CC3)CC2=O)cc1C` (stereo not shown), the “hERG current change (%, negative = inhibition) at 1uM” value turned out to be 4.61%.

In the case of `COc1cc(Cl)c(C)cc1NC(=O)COC(=O)C(NS(=O)(=O)c1ccc(Cl)cc1)C(C)O` (stereo not shown), the “hERG current change (%, negative = inhibition) at 1uM” value was 12.8%.

For the compound `COc1ccc(-c2cc(C(F)F)n3ncc(C(=O)NCC4CCCO4)c3n2)cc1` (stereo not shown), the “hERG current change (%, negative = inhibition) at 1uM” value was 8.93%. As to `CNCCOCC(O)CSc1ccccc1` (stereo not shown), the “hERG current change (%, negative = inhibition) at 1uM” value was 11.1%.

In the case of `CCN1CCN(c2ccc(NC(=O)CCc3c(C)nc4c(-c5ccccc5)c(C)nn4c3C)cc2)CC1`, the “hERG current change (%, negative = inhibition) at 1uM” value is listed as 4.52%. As to `O=c1c2nnn(-c3ccccc3)c2ncn1C/C=C/c1ccccc1`, the “hERG current change (%, negative = inhibition) at 1uM” value is reported as 7.51%. For the compound `CCC(=O)Nc1c2c(nn1-c1ccc(F)cc1)CS(=O)C2` (stereo not shown), the “hERG current change (%, negative = inhibition) at 1uM” value is reported as 1.88%. For `Cc1cc(C(=O)NNC(=S)NC(C)c2ccccc2)cs1` (stereo not shown), the “hERG current change (%, negative = inhibition) at 1uM” value was found to be 0.596%.

Turning to `CC1(C)CC(=O)C=C(NCCCNC2CCCCC2)C1`, the “hERG current change (%, negative = inhibition) at 1uM” value turned out to be 13.2%. Take `COc1ccc(C2=NN(C(=O)CCC(=O)O)C(c3ccc([N+](=O)[O-])cc3)C2)cc1` (stereo not shown): the “hERG current change (%, negative = inhibition) at 1uM” value stood at 8.77%.

`O=C(NCCSc1c[nH]c2ccccc12)c1ccco1`: the “hERG current change (%, negative = inhibition) at 1uM” value came to 2.21%.

As for `CC(=O)c1c(C)[nH]c(C(=O)Nc2cccc(S(=O)(=O)N3CCCCC3)c2)c1C`, the “hERG current change (%, negative = inhibition) at 1uM” value is recorded as 8.27%. Regarding `O=c1[nH]c(N2CCOCC2)nc2ncn(Cc3ccccc3)c12`, the “hERG current change (%, negative = inhibition) at 1uM” value amounted to 7.57%.

With `CCOc1ccc(/C=N/NC(=O)c2ccc(CSc3nc4ccccc4[nH]3)cc2)cc1`, the “hERG current change (%, negative = inhibition) at 1uM” value worked out at 14.3%. For `COc1ccccc1CNC(=O)C1CCN(C(=O)[C@@H]2Cc3ccccc3CN2)CC1`, the “hERG current change (%, negative = inhibition) at 1uM” value was determined as 6.3%.

With `O=C(O)c1cc(S(=O)(=O)N2CCOCC2)ccc1N1CCCCC1`, the “hERG current change (%, negative = inhibition) at 1uM” value came out at 9.26%. The result for `CCOc1ccc(NC(=O)CN2CCN(Cc3c(F)cccc3F)CC2)cc1` reads -50.7%; that for `CCOC(=O)c1c(C)[nH]c(C(=O)Cn2nnc(-c3ccc(Cl)cc3)n2)c1C`, -0.516%. With `Cc1cc(C)cc(NC(=S)N(CCCN2CCN(C)CC2)Cc2cccs2)c1`, the “hERG current change (%, negative = inhibition) at 1uM” value is recorded as -19.2%. Turning to `COCCn1c(COc2ccc(OC)cc2)nc2ccccc21`, the “hERG current change (%, negative = inhibition) at 1uM” value is given as 1.33%.

These data come from paper PMC4336329 (PLoS ONE, 2015).
